The source of these data is PubChem BioAssay AID1508624 (National Center for Advancing Translational Sciences (NCATS), 2021).

The campaign covered roughly 48,000 compounds. About 120 (0.25%) were called active. About 4% were inconclusive and are not listed. Calls follow the shape of the dose curve; as a rule, active = well fitted activation curve with a large enough effect; inconclusive = small, poorly fitted or top-dose-only effect, or another doubt; inactive = no such curve, though single readings can be large or run the other way. The list shows a part of the results.

The experiment can be described thus: Primary qHTS for Identification of Small Molecule Activators of Huntingtin-Antisense Promoter Activity. Also: nearly all actives have a fitted effect of over 55% in size. The following applies: HEK293 HTT-AS promoter firefly luciferase reporter, 24 h; series mostly up to 57.5 µM; activity change, positive = activation: at the top concentration. In a few lines: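 Firefly luciferase signal from promoter-reporter HEK293 cells was scaled between vehicle (0%) and zero RLU (-100%). Compounds were tested at final concentrations of up to 57.5 uM over 24 h at 37 degrees C. PTC124 at 50 uM final served as control inhibitor.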
Take `COc1ccc(-n2ccnc(NCc3ccccc3Cl)c2=O)cc1OC`: the “activity change, positive = activation” value is inactive: -6.04%.

In the case of `COc1ccc(C(=O)c2oc3ccccc3c2NC(=O)c2cccc(OC)c2)cc1`, the “activity change, positive = activation” value was inactive: -9.54%.

With `CCN(CC)CCOC(=O)c1ccc(NC(=O)c2cc3c(s2)-c2ccccc2OC3)cc1`, the “activity change, positive = activation” value is inactive: -22.9%.

In the case of `COc1ccc(CNC(=O)c2sc3nc4n(c(=O)c3c2C)CCCCC4)cc1`, the “activity change, positive = activation” value was inactive: 13.4%.

As for `CCc1ccc(NC(=O)CN2C(=O)c3ccccc3Sc3ccc(C(=O)N4CCCC4)cc32)cc1`, the “activity change, positive = activation” value was inactive: -34.1%.

As to `Clc1cccc(C2=NC(c3cccs3)=Nc3ccc(Br)cc3N2)c1`, the “activity change, positive = activation” value was inactive: 9.01%.

With `Cc1nc(-c2ccc(S(=O)(=O)Nc3ccc(Cl)c(C(F)(F)F)c3)cc2)co1`, the “activity change, positive = activation” value is inactive: -22.6%.

In the case of `CCN(CC)CCOC(=O)c1ccc(Nc2c3c(nc4ccccc24)CCC3)cc1`, the “activity change, positive = activation” value was inactive: -20.9%.

`COc1ccc(CNC(=O)C(CC(C)C)N2Cc3ccccc3C2=O)cc1` (stereo unspecified): the “activity change, positive = activation” value is inactive: -16.6%.

On to `Cc1ccc2nc(COc3cccc(NC(=O)c4ccccc4Cl)c3)cc(=O)n2c1`, for which the “activity change, positive = activation” value was inactive: 0.848%.

As to `CC(C)CN(CCNC(=O)c1cc(-c2cccs2)nc2ccccc12)CC(C)C`, the “activity change, positive = activation” value was inactive: -9.2%.

`CCOc1ccccc1CNC(=O)c1cnc2sc(N(CC)CC)nn2c1=O`: the “activity change, positive = activation” value was inactive: -24.6%.

`COc1ccccc1/C=C/c1nc(C#N)c(NCC(C)C)o1`: the “activity change, positive = activation” value was inactive: 5.93%.

Turning to `Cn1c(=O)c2c(c3ccccc31)OC(=O)CC2c1cccc(Cl)c1` (stereo unspecified), the “activity change, positive = activation” value was inactive: -6.82%.

Turning to `Cc1ccc(-c2nc(CCNC(=O)C(=O)Nc3c(C)cccc3C)cs2)cc1`, the “activity change, positive = activation” value was inactive: -28.4%.

For the molecule `CN(C)C1CCN(C(=O)c2ccc(NC(=O)Nc3nc(N4CCOCC4)nc(N4CCOCC4)n3)cc2)CC1`, the “activity change, positive = activation” value is inactive: -37.5%.

On to `COc1cc(NC(=O)CN2Cc3ccccc3C2=O)cc(OC)c1OC`, for which the “activity change, positive = activation” value was inactive: 8.45%.

As to `CCOCCn1cnc2sc(C(=O)Nc3ccccc3C(=O)OC)c(C)c2c1=O`, the activity change, positive = activation was inactive: -6.34% [at 11.5 µM, percent change from vehicle, -100% = no light].

Consider `O=C(Cn1ccc2cc(S(=O)(=O)N3CCCCC3)ccc21)NCc1ccccc1Cl`, for which the “activity change, positive = activation” value was inactive: -18%.

For `CCOc1cccc(CC(=O)N2CCc3c([nH]c4ccccc34)C2c2ccc(SC)cc2)c1OCC` (stereo unspecified), the “activity change, positive = activation” value was inactive: -19.3%.

Consider `Cc1c(C(=O)NCCO)[n+](=O)c2ccccc2n1[O-]`, for which the “activity change, positive = activation” value is inactive: -0.905%.

For the molecule `CCOc1ccc(NC(=O)Cn2nc(Cc3ccncc3)c3ccccc3c2=O)cc1`, the “activity change, positive = activation” value is inactive: -21.7%.

`COc1ccc(N2C(=O)CSC23C(=O)N(Cc2ccc(C)cc2)c2ccccc23)cc1Cl` (stereo unspecified): the “activity change, positive = activation” value was inactive: -30.4%.

With `CCCN(CCC)C(=O)c1nn(C)c2c1CSc1ccc(C)cc1-2`, the “activity change, positive = activation” value is inactive: 8.3%.

For `CC(C)c1nc2ccc(C(=O)NC(C)c3ccccc3)cc2o1` (stereo unspecified), the “activity change, positive = activation” value was inactive: 27.9%.

Turning to `O=C(NC1CCCC1)c1ccc(CSc2nc3cccnc3n2Cc2ccc(F)cc2)cc1`, the “activity change, positive = activation” value is inactive: -8.79%.

For `CCOC(=O)c1ccc2ncc3c(-c4ccccc4)nn(-c4ccc(F)c(Cl)c4)c3c2c1`, the “activity change, positive = activation” value is inactive: -2.14%.

In the case of `O=C(N[C@@H](c1ccccc1)[C@@H]1CCCCN1)c1cccc(C(F)(F)F)c1Cl`, the “activity change, positive = activation” value is inactive: -45.3%.

As for `CCc1ccccc1N1CC(c2nc3ccccc3n2CCCCOc2ccccc2)CC1=O` (stereo unspecified), the “activity change, positive = activation” value was inactive: -7.35%.

In the case of `CC(=O)c1ccc(N2CCN(S(=O)(=O)c3ccc4c(c3)C(C)(C)C(=O)N4)CC2)cc1`, the “activity change, positive = activation” value is inactive: -35.9%.

Regarding `Oc1ccccc1-c1nc(/C=C/c2ccc(F)cc2)nn1-c1ccccc1`, the “activity change, positive = activation” value is inactive: 2.6%.

Take `CCCn1c2ccccc2c2cnn(CC(=O)N(CCCOC)Cc3ccco3)c(=O)c21`: the “activity change, positive = activation” value is inactive: -35%.

As to `CC(=O)N1CCc2nc3sc(C(=O)Nc4ccc(Cl)cc4F)c(N)c3c(C(F)(F)F)c2C1`, the “activity change, positive = activation” value was inactive: 0.0548%.

On to `CCOc1ccccc1NC(=O)Cn1c(=O)ccc2cc(S(=O)(=O)N3CCCC3)ccc21`, for which the “activity change, positive = activation” value is inactive: -33.3%.

As for `CC(Oc1ccccc1)C(=O)Nc1nnc2n1CCS2` (stereo unspecified), the “activity change, positive = activation” value is inactive: -12.9%.

With `COc1cc(-c2nc3nc(C)cc(C)n3c2Nc2ccc(Cl)cc2)ccc1O`, the “activity change, positive = activation” value was inactive: -28.5%.

Regarding `COc1ccc(C(=O)Nc2ccc(-c3nnc4n3CCCCC4)cc2)cc1OC`, the “activity change, positive = activation” value was inactive: -25.8%.

Take `COC(=O)c1cccc(-n2c(CCC(=O)O)ccc2-c2cccs2)c1`: the “activity change, positive = activation” value is inactive: 33.5%.

With `COc1ccc(Cn2c(C(=O)O)c(CNCc3ccc(C)o3)c3ccc(C)cc32)cc1`, the “activity change, positive = activation” value was inactive: -31.1%.

`Cc1ccc(NC(=O)c2ccc(-n3c(C)nnc3C)cc2)cc1F`: the “activity change, positive = activation” value was inactive: -6.98%.

As to `CCOC(=O)c1c(-c2ccc(C)cc2)csc1NC(=O)c1nc(SC(C)C)ncc1Cl`, the “activity change, positive = activation” value is inactive: -24.7%.

Regarding `CCc1ccccc1NC(=O)C1CCCN(C(=O)c2cnn(-c3ccccc3)c2-n2cccc2)C1` (stereo unspecified), the “activity change, positive = activation” value is inactive: -27.4%.

`CCCc1nc(SCc2cc(=O)c3ccc(C)c(C)c3[nH]2)n[nH]1`: the “activity change, positive = activation” value is inactive: -23.7%.

Regarding `CCC(C(=O)NCCc1ccccc1)n1nc(C)n2c(cc3sccc32)c1=O` (stereo unspecified), the “activity change, positive = activation” value is inactive: -21.8%.

With `COc1ccc(S(=O)(=O)N2CCN(Cc3nc4ccc(C)cc4o3)CC2)cc1Cl`, the “activity change, positive = activation” value was inactive: -34.6%.

On to `CCOc1ccccc1NC(=O)c1c(NC(=O)c2cccc(C)c2)sc2c1CCC2`, for which the “activity change, positive = activation” value was inactive: -11.9%.

Turning to `CCOc1ccc(N2CC(NC(=O)c3ccc(S(=O)(=O)N4CCCCC4)cc3)CC2=O)cc1` (stereo unspecified), the “activity change, positive = activation” value is inactive: -16%.

For the molecule `Cc1ccc(-c2cc(C(F)(F)F)n3nc(C(=O)NCC45CC6CC(CC(C6)C4)C5)cc3n2)cc1`, the “activity change, positive = activation” value was inactive: -6.92%.

Consider `CCc1cc2c(cc3c(=O)n(CC(=O)NC4CCC(C)CC4)ncn32)s1` (stereo unspecified), for which the “activity change, positive = activation” value is inactive: -11.1%.

Consider `Cc1ccc(NC(=O)CSc2nc3ccccc3nc2N2CCOCC2)cc1`, for which the “activity change, positive = activation” value was inactive: -24.3%.

Consider `COc1cc2nc(NCc3ccc(C)cc3)n3nc(-c4ccccc4)nc3c2cc1OC`, for which the “activity change, positive = activation” value is inactive: -11.5%.

Consider `COc1ccc(CCNC(=O)CS(=O)Cc2nc(-c3ccccc3F)oc2C)cc1OC` (stereo unspecified), for which the “activity change, positive = activation” value was inactive: -12.9%.

In the case of `COc1cc(NC(=O)CSc2ncccc2C(=O)OC(C)C)cc(OC)c1`, the “activity change, positive = activation” value is inactive: -25%.

`Cc1cc(C(=O)NCc2ccccc2Cl)c2c(C)nn(-c3ccccc3)c2n1`: the “activity change, positive = activation” value was inactive: -1.4%.

Turning to `CCN1C(C(=O)c2ccccc2)=C(OC(=O)c2ccccc2OC)c2ccccc2S1(=O)=O`, the “activity change, positive = activation” value was inactive: -37.4%.

For `CCN(CC)CCNC(=O)c1ccc2c(=O)n3nc(Nc4ccccc4OC)sc3nc2c1`, the “activity change, positive = activation” value is inactive: -21.1%.

Regarding `CCOc1ccc(-c2nc(CSCC(=O)NCc3ccc(Cl)cc3)c(C)o2)cc1`, the “activity change, positive = activation” value is inactive: -51.1%.

For the molecule `O=S1(=O)c2ccccc2N(Cc2cccc(Cl)c2)c2ccccc21`, the “activity change, positive = activation” value was inactive: -29.3%.

For `COc1cccc(CNC(=O)C2CCN(c3nnc(-n4c(C)ccc4C)s3)CC2)c1OC`, the “activity change, positive = activation” value is inactive: 4.42%.

As for `CC(=O)c1cc2c(cc1N/C(=N/S(=O)(=O)c1ccc(C)cc1)c1ccc(F)cc1)OCO2`, the “activity change, positive = activation” value was inactive: -22.4%.

`CC(C)CCNC(=O)CN1C(=O)CSc2ccc(S(=O)(=O)N3CCCCC3)cc21`: the “activity change, positive = activation” value is inactive: -17.1%.
